# Measurements published in PubChem BioAssay AID504648 (National Center for Advancing Translational Sciences (NCATS), 2011).
# About 610 (0.16%) of roughly 390,000 compounds were called active. Inconclusive results (about 4%) are left out. The call rests on the fitted dose curve; in most records, active means well fitted inhibition curve with a large enough effect; inconclusive means small, poorly fitted or top-dose-only effect, or effect the other way, or another doubt; inactive means no such curve, though single readings can be large or run the other way. This is a selection; strong and weak results do not stand in their true shares.
# Test: Nrf2 qHTS screen for inhibitors: counterscreen for cytotoxicity
# Conditions: A549 ARE-Fluc cells, CellTiter-Fluor viability, 18-24 h; series mostly up to 46 µM; activity change, negative = cytotoxicity: at the top concentration
# Procedure, shortened: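 A549 ARE_Fluc cells in 5% FBS OPTI-MEM were exposed to compounds in concentration-response for 18-24 h at 37 deg C. Viability was read by CellTiter-Fluor fluorescence (Ex 405/Em 525) after 30 min, before the luciferase read.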
# On the % scale 0 is the no-effect control and ±100 the full control effect; potency means the concentration at half of the fitted maximal effect.
Structure (SMILES),"activity change, negative = cytotoxicity",Potency
O=C(NCc1cccnc1)/C(=C/c1ccc(-c2cccc(Cl)c2)o1)S(=O)(=O)c1ccccc1,inactive: 1.32%,
CC(C)n1cc(/C=C2\NC(=O)N(c3cccc(Cl)c3)C2=O)c2ccccc21,inactive: -11%,
CCOC(=O)N1CCN(C(=O)c2ccc3c(c2)N(Cc2cc(C)ccc2C)C(=O)c2ccccc2S3=O)CC1 (stereo unspecified),inactive: -13%,
C=CC[C@@H](CC(=O)N[C@@H](CO)Cc1ccccc1)C(=O)N[C@@H](C)COC(=O)[C@@H](CC=C)Cc1ccc(F)cc1,inactive: -1.74%,
C[C@@]12C(=O)N(c3ccc(C(F)(F)F)cc3)C(=O)N1[C@@H]1c3ccccc3OC[C@@H]1[C@H]2c1ccccc1,inactive: 10%,
C=CCC[C@@H](Cc1ccc(F)cc1)C(=O)OC[C@@H](Cc1c[nH]c2ccccc12)NC(=O)[C@@H](CC=C)CC(=O)N[C@@H](CO)Cc1ccccc1,inactive: -6.75%,
CCc1nnc(NC(=O)c2ccc(NS(=O)(=O)c3ccccc3)cc2)s1,inactive: 6.43%,
C[C@@H](C(=O)N=c1sc2ccccc2n1C)N1C(=O)C2CC=CCC2C1=O (stereo partly specified),inactive: 3.01%,
C=CC[C@@H](CC(=O)N(CCO)Cc1ccccc1)C(=O)N[C@H](COC(=O)[C@@H](CC=C)CC(=O)OC(C)(C)C)Cc1ccccc1,inactive: -5.08%,
CCCCN(CC)CCCNC(=O)c1cc2c(=O)[nH]c3ccccc3c2s1,inactive: 6.1%,
CCOC(=O)/C=c1\s/c(=C\c2ccccc2OC)c(=O)n1CC(=O)N1CCOCC1,inactive: -21.4%,
O=C(C[C@H]1C/C=C\CC[C@@H](Cc2ccc(F)cc2)C(=O)O[C@@H](c2ccccc2)CNC1=O)N[C@@H](CO)Cc1ccccc1,inactive: -0.0995%,
C=CCC[C@@H](Cc1ccc(F)cc1)C(=O)OC[C@H](C)NC(=O)[C@@H](CC=C)CC(=O)N(CCO)Cc1ccccc1,inactive: -7.22%,
CCC1=C(CC2NCCc3ccccc32)CC2c3cc(OC)c(OC)cc3CCN2C1 (stereo unspecified),,active: 7.31 µM
O=C(CCCN1C(=O)/C(=C/c2ccccc2)SC1=S)Nc1ccc(O)cc1,inactive: -3.96%,
O=C(/C=C/c1ccco1)Nc1ccc(-c2nc3ccccc3[nH]2)cc1,,active: 23.1 µM
COc1cc(C(=O)NCC(c2cccnc2)N2CCN(c3ccc(F)cc3)CC2)cc(OC)c1OC (stereo unspecified),inactive: 1.81%,
Cn1ncc2c(O/N=C(\N)c3ccc(C(C)(C)C)cc3)ncnc21,,active: 16.4 µM

Structure (SMILES),"activity change, negative = cytotoxicity",Potency
CCN1C(=O)/C(=C2/Sc3ccccc3N2CCCS(=O)(=O)O)SC1=S,inactive: -19.9%,
Cn1c2ccccc2c2cnn(CC(=O)NCCCN3CCN(c4ccccc4F)CC3)c(=O)c21,inactive: 12.8%,
CCNC(=O)c1c(NC(=O)c2nc(S(=O)(=O)CC)ncc2Cl)sc2c1CCCC2,,active: 20.6 µM
Cc1[nH]nc(N=CC2=C(O)CC(C)(C)CC2=O)c1-c1ccccc1,inactive: -8.94%,
COc1ccc(C(CC(=O)N2CCN(c3ccccc3)CC2)c2c(OC)cc(OC)c3ccc(=O)oc23)cc1 (stereo unspecified),inactive: -15.9%,
Cc1ccc(N(CC2=NCCN2)c2cccc(O)c2)cc1,,inactive
COC(=O)C1=C(C)NC(C)=C([N+](=O)[O-])C1c1ccccc1C(F)(F)F (stereo unspecified),inactive: -18.4%,
COc1ccc(C(=O)Nc2ccc3nc(N4CCCCC4)cc(C)c3c2)cc1OC,inactive: -21%,
CCCCCn1c(=O)[nH]c2cc(C(=O)N3CCN(c4ccccc4F)CC3)ccc2c1=O,inactive: -2.3%,
CCCN(CCC)CCNC(=O)c1cc2c(-c3ccc(Cl)cc3)nn(C)c2s1,,active: 23.1 µM
COc1ccccc1NC(=O)NCCN1CCN(c2cccc(Cl)c2)CC1,inactive: 1.21%,
COc1ccc([C@@H]2C[C@@H](c3ccccc3)Oc3cc(OC)c(OC)c(OC)c32)cc1,inactive: 18.6%,
CC1CC=CC2C1C(=O)N(Cc1ccccc1)C2c1ccc2ccccc2c1Br (stereo unspecified),inactive: -4.31%,
COc1ccc(CC2C(=O)NC(C)C(=O)N(C)C3Cc4ccc(cc4)Oc4cc(ccc4O)CC(C(=O)NC(C)C(=O)NC(C)C(=O)N2C)N(C)C3=O)cc1 (stereo unspecified),,active: 2.31 µM
O=C1OC(c2ccccc2)(c2ccccc2)N2CCN(C(=O)NCc3ccc(F)cc3)CC12 (stereo unspecified),inactive: -15.2%,
CCCCN(CC)CCNC(=O)c1nn(-c2ccc(OC)cc2)c(=O)c2c1c1ccccc1n2C,inactive: -4.65%,
Cc1c(C(=O)N(Cc2ccc(N(C)C)cc2)C2CCS(=O)(=O)C2)oc2ccccc12 (stereo unspecified),inactive: -12.8%,
COc1ccc(Cl)cc1NC(=O)CN(C)C(=O)CCC(=O)c1cc(C)sc1C,,active: 16.4 µM
